Fractional viability data for 42 molecules are collected here from the supplement of paper PMC5919970.

This experiment has as its system TYKNU. Put plainly: fractional viability relative to vehicle; TYKNU is a high-grade serous ovarian cancer line; higher = less growth inhibition. The settings on record: 72 h, genotype: OPA1 knockout (sgOPA1 #2). Put shortly: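 TYKNU control cells or lentiCRISPRv2 knockout derivatives were plated at 500 cells per well in duplicate into drug-stamped 384-well plates holding a ~2100-compound library at 2 or 10 μM. Culture was in RPMI 1640 with 10% FBS at 37 °C in 5% CO2, with 72 h of drug treatment. Viability was measured by Cell Titer Glo luminescence, and the averaged duplicate treatment wells were normalised to duplicate control wells at the same plate position.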

Structures are written as SMILES. Structures can show the parent of a compound that is named as a salt. Whole data set: some 2,000 compounds, median “fractional viability relative to vehicle” near 0.92, cut for the lowest 2% near 0.11. Some of the results follow.

For the molecule `Fc1ccc(C(c2ccc(F)cc2)N2CCN(C/C=C/c3ccccc3)CC2)cc1` [Flunarizine 2HCl], the fractional viability amounted to 0.836 (2uM) and 0.759 (10uM).
`Oc1ccc([C@H]2COc3cc(O)ccc3C2)cc1` [Equol] yielded a fractional viability (2uM) of 0.956 and a fractional viability (10uM) of 0.833.
On the same counts, the results for `Cc1ccc(Nc2c(F)cccc2Cl)c(CC(=O)O)c1` [Lumiracoxib] are 0.828 and 0.865.
On the same counts, the results for `O=C([C@@H](Cc1cccc(C(F)(F)F)c1)NS(=O)(=O)c1cc(F)c2c(c1)CCNC2)N1CCCC1` are 0.855 and 0.889.
For `Nc1nc(Cl)nc2c1ncn2[C@H]1C[C@H](O)[C@@H](CO)O1` [Cladribine], the fractional viability by setting is: (2uM) 0.96; (10uM) 0.613.
`O=C(C=Cc1ccccc1)NC(NC(=S)Nc1ccc(Cl)cc1)C(Cl)(Cl)Cl` (centres undefined): the fractional viability (2uM) amounted to 0.891 and the fractional viability (10uM) was found to be 0.336.
On the same counts, the results for `Cc1nc(Nc2cnn(C3CCNCC3)c2)nc2c1N(C)C(=O)c1cc3ccccc3cc1N2C` are 0.8 and 0.647.
`OCCOCCN1CCN(C2=Nc3ccccc3Sc3ccccc32)CC1` [Quetiapine Fumarate]: the fractional viability reads like this: (2uM) 1.14; (10uM) 0.988.
On the same counts, the results for `COc1cccc2c1C(=O)c1c(O)c3c(c(O)c1C2=O)C[C@@](O)(C(=O)CO)C[C@@H]3O[C@H]1C[C@H](N)[C@H](O)[C@H](C)O1` [Doxorubicin (Adriamycin)] are 0.738 and 0.726.
On the same counts, the results for `CC1(C)S[C@@H]2[C@H](NC(=O)[C@H](N)c3ccc(O)cc3)C(=O)N2[C@H]1C(=O)O` [Amoxicillin Sodium] are 0.994 and 0.909.
On the same counts, the results for `CC1(C)S[C@@H]2[C@H](NC(=O)[C@H](N)c3ccc(O)cc3)C(=O)N2[C@H]1C(=O)O` [Amoxicillin] are 0.956 and 0.882.
For the molecule `Cc1cc(C(=O)NOCCO)c(Nc2ccc(I)cc2F)n(C)c1=O`, the fractional viability (2uM) was 0.504 and the fractional viability (10uM) was 0.43.
As to `COc1ccccc1C(=O)Nc1cc2c(cc1N1CCCC1)n(C)c(=O)n2C`, the fractional viability was found to be 0.874 (2uM) and 1.14 (10uM).
On the same counts, the results for `O=C(CCc1ccc(O)cc1)c1c(O)cc(O)cc1O[C@@H]1O[C@H](CO)[C@@H](O)[C@H](O)[C@H]1O` [Phlorizin] are 0.803 and 0.881.
On the same counts, the results for `C=C[C@]1(C)C[C@@H](OC(=O)CS[C@@H]2C[C@H]3CC[C@@H](C2)N3C)[C@]2(C)[C@H](C)CC[C@]3(CCC(=O)[C@H]32)[C@@H](C)[C@@H]1O` [Retapamulin] are 1.33 and 1.33.
Turning to `Oc1ncnc2[nH]ncc12` [Allopurinol], the fractional viability by setting is: (2uM) 1.17; (10uM) 1.11.
On the same counts, the results for `CN(N=O)C(=O)NC1C(O)OC(CO)C(O)C1O` (centres undefined) [Streptozotocin (STZ)] are 0.956 and 1.02.
On the same counts, the results for `C=CC(=O)Nc1cccc(C)c1Nc1ncc2cc(-c3c(Cl)c(OC)cc(OC)c3Cl)ccc2n1` are 0.676 and 0.37.
On the same counts, the results for `C[C@]12CCC(=O)C=C1CC[C@@H]1[C@@H]2[C@@H](O)C[C@@]2(C)[C@H]1CC[C@]2(O)C(=O)CO` [Hydrocortisone] are 1.25 and 1.06.
Consider `COc1ccc(CCN(C)CCCC(C#N)(c2ccc(OC)c(OC)c2)C(C)C)cc1OC` (centres undefined) [Verapamil HCl], for which the fractional viability was 1.04 (2uM) and 0.965 (10uM).
On the same counts, the results for `Cc1onc(-c2ccccc2)c1-c1ccc(S(N)(=O)=O)cc1` [Valdecoxib] are 1.06 and 0.899.
On the same counts, the results for `CCCc1cc(=O)[nH]c(=S)[nH]1` [Propylthiouracil] are 1.01 and 0.889.
For the molecule `O=C(Nc1ccccc1)c1cc([N+](=O)[O-])ccc1Cl`, the fractional viability (2uM) was found to be 1.11 and the fractional viability (10uM) stood at 0.918.
On the same counts, the results for `C=C1C(=O)O[C@@H]2/C=C(\C)CC/C=C(\C)CC[C@@H]12` [Costunolide] are 1.15 and 0.522.
As for `CO/N=C(\C(=O)N[C@@H]1C(=O)N2C(C(=O)OCOC(=O)C(C)(C)C)=C(/C=C\c3scnc3C)CS[C@H]12)c1csc(N)n1` [Cefditoren Pivoxil], the fractional viability runs as follows: (2uM) 0.91; (10uM) 0.921.
As to `COc1ccc([C@@H]2CC(=O)c3c(O)cc(O[C@@H]4O[C@H](CO[C@@H]5O[C@@H](C)[C@H](O)[C@@H](O)[C@H]5O)[C@@H](O)[C@H](O)[C@H]4O)cc3O2)cc1O` [Hesperidin], the fractional viability was found to be 1.16 (2uM) and 1.06 (10uM).
`O=c1cc(N2CCOCC2)oc2c(-c3cccc4c3sc3ccccc34)cccc12` had a fractional viability (2uM) of 0.867 and a fractional viability (10uM) of 0.693.
As to `CC(C)(C(=O)O)c1ccc(C(O)CCCN2CCC(C(O)(c3ccccc3)c3ccccc3)CC2)cc1` (centres undefined) [Fexofenadine HCl], the fractional viability (2uM) was determined as 1.01 and the fractional viability (10uM) came to 0.867.
On the same counts, the results for `O=C[C@H](O)[C@@H](O)[C@H](O)CO` [Xylose] are 1.16 and 1.08.
As to `CC(=O)O[C@]1(C(C)=O)CC[C@H]2[C@@H]3C[C@H](C)C4=CC(=O)C=C[C@]4(C)[C@@]3(F)[C@@H](O)C[C@@]21C` [Fluorometholone Acetate], the fractional viability is, setting by setting: (2uM) 0.964; (10uM) 1.03.
On the same counts, the results for `COC(=O)C[C@H](NC(=O)[C@H](C)NC(=O)[C@@H](NC(=O)OCc1ccccc1)C(C)C)C(=O)CF` are 1.03 and 1.01.
On the same counts, the results for `CC(=O)Nc1ccccc1` [Acetanilide] are 0.946 and 0.905.
On the same counts, the results for `O=C(/C=C/c1ccc2ccccc2n1)c1ccncc1` are 0.472 and 0.11.
Take `Cc1cc(C(N)=O)ccc1-n1c(CCC(=O)O)ccc1-c1ccc(-n2ccnc2)cc1`: the fractional viability came to 0.877 (2uM) and 0.84 (10uM).
On the same counts, the results for `Clc1ccc(NN=C(c2ccccc2)c2ccccn2)nc1` are 0.229 and 0.0582.
On the same counts, the results for `C[N+]1(C)[C@@H]2C[C@@H](OC(=O)C(O)(c3cccs3)c3cccs3)C[C@H]1[C@@H]1O[C@@H]12` [Tiotropium Bromide hydrate] are 0.97 and 1.05.
For the molecule `CC(C(=O)O)c1ccc2c(c1)Cc1cccnc1O2` (centres undefined) [Pranoprofen], the fractional viability amounted to 0.95 (2uM) and 0.962 (10uM).
With `O=C(N/N=C/c1cc(O)c(O)cc1O)c1cc2ccccc2cc1O` [Dyngo-4a], the fractional viability turned out to be 1.04 (2uM) and 1.16 (10uM).
Consider `C[N+]1(C)[C@@H]2CC[C@H]1C[C@@H](OC(=O)C(O)c1ccccc1)C2` (some centres undefined) [Homatropine Methylbromide], for which the fractional viability was 1.05 (2uM) and 0.925 (10uM).
On the same counts, the results for `COC(c1ccccc1)(c1ccccc1)[C@H](Oc1nc(C)cc(C)n1)C(=O)O` [Ambrisentan] are 1.36 and 1.09.
On the same counts, the results for `COC(=O)C1=C(C)NC(C)=C(C(=O)OCCN2CCN(C(c3ccccc3)c3ccccc3)CC2)C1c1cccc([N+](=O)[O-])c1` (centres undefined) [Manidipine 2HCl] are 1.05 and 0.669.
With `COC(=O)C1=C(C)NC(C)=C(C(=O)OCCN2CCN(C(c3ccccc3)c3ccccc3)CC2)C1c1cccc([N+](=O)[O-])c1` (centres undefined) [Manidipine], the fractional viability is, setting by setting: (2uM) 1.13; (10uM) 0.583.
